In the supplement of paper PMC12217912:
The other results are listed elsewhere or left out. The full chains were built here from the parent and the listed change. Inactive controls read about 0.05.

B1: TEV protease; numbered along this chain (parent)
chain: MGESLFKGPRDYNPISSSICHLTNESDGHTTSLYGIGFGPFIITNKHLFRRNNGTLVVQSLHGVFKVKDTTTLQQHLVDGRDMIIIRMPKDFPPFPQKLKFREPQREERICLVTTNFQTKSMSSMVSDTSCTFPSGDGIFWKHWIQTKDGQCGSPLVSTRDGFIVGIHSASNFTNTNNYFTSVPKNFMELLTNQEAQQWVSGWRLNADSVLWGGHKVFMVKPEEPFQPVKEATQL

Variants of: B1
Assay: raw area under fraction-flipped curve 0-4 h after induction (AUC4h, not background-subtracted), DNA-recorder readout of cleavage of the substrate (dimensionless); higher = more cleavage of the substrate by the protease variant
Conditions: temperature: 34 °C; time window: 0-4 h after rhamnose induction
Procedure: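 In vivo DNA recorder in E. coli TOP10(DE3) ΔrhaA at 34 °C. Each TEVp single-site mutant (parent TEVp 0) is paired with a single-site variant of the 7-mer TEVs (canonical ENLYFQ|S). The substrate sits between flexible linkers in a Bxb1-sfGFP-TEVs-SsrA fusion, so cleavage stabilises Bxb1 and speeds flipping of a recombination array, read by NGS. The value is the raw area under the fraction-flipped curve over 0-4 h after rhamnose induction (AUC4h), with ≥20 reads per time point. It is not background-subtracted; inactive controls average about 0.047.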
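Note: Bxb1 expression induced with 0.2% (w/v) L-rhamnose at OD600 near 0.5, cultures sampled hourly, flipped fraction per protease–substrate barcode pair counted by paired-end Illumina sequencing.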

Variant	area with substrate ANLYFQS	area with substrate CNLYFQS	area with substrate DNLYFQS	area with substrate FNLYFQS	area with substrate GNLYFQS	area with substrate HNLYFQS	area with substrate KNLYFQS	area with substrate LNLYFQS	area with substrate PNLYFQS	area with substrate QNLYFQS	area with substrate TNLYFQS	area with substrate WNLYFQS	area with substrate INLYFQS	area with substrate MNLYFQS	area with substrate NNLYFQS	area with substrate SNLYFQS	area with substrate VNLYFQS	area with substrate YNLYFQS	area with substrate RNLYFQS
W144M	0.0666	0.0766	0.0838	0.0605	0.0685	0.0681	0.0593	0.0614	0.0643	0.0805	0.0774	0.0631							
W144S	0.0737	0.065	0.065			0.046	0.0646	0.0608	0.0762		0.0668	0.0554	0.0716	0.059	0.0656	0.0493	0.0587	0.0802	
V165E	0.0486	0.0511	0.0553	0.051		0.0513	0.0561	0.053	0.0522		0.006	0.0407	0.0595	0.0554	0.0395	0.0181	0.0657	0.0493	
G162C	0.0484	0.0521	0.0891	0.0919	0.0645	0.0622	0.0653	0.056	0.0659	0.0435	0.0742	0.0593	0.0608	0.0689		0.0631	0.0758	0.0606	
C152E	0.0579	0.0465	0.0614	0.0566	0.061	0.0542	0.078	0.0645	0.0528	0.0568	0.0633	0.0668	0.0466		0.0593	0.0601	0.0487	0.0514	0.061
C152G	0.0536	0.0625	0.0631	0.0571	0.0677	0.0601	0.0729	0.056	0.0618		0.0691	0.0573	0.0562	0.0637	0.0628		0.0502	0.0518	
C152W	0.0496	0.0586	0.0475	0.058		0.0563	0.0673	0.0489	0.0522		0.0598	0.0507	0.062			0.0428	0.0614	0.0397	
C152L	0.059	0.0521	0.0461		0.057	0.0496		0.0525	0.0629			0.0567		0.0649	0.0512				
C152V	0.0543	0.0624	0.0544	0.0592	0.0728	0.0549	0.0562	0.0538	0.0573		0.0591	0.0655	0.0563					0.044	
C152I	0.0649	0.0519	0.0564	0.0548	0.0749	0.0521	0.0738	0.0795	0.0669	0.0591	0.0517	0.0517	0.0809	0.0588		0.0642	0.069	0.0451	
C152A	0.0599	0.0727	0.0248	0.0426	0.0538	0.0635	0.0282		0.0558		0.0646				0.0348	0.0528	0.064	0.0517	
R160D	0.0613	0.074			0.0675	0.0658	0.0758	0.0658	0.0719		0.117	0.0588	0.0673	0.0667	0.066		0.0513	0.0655	0.0691
R160I	0.0722	0.0593	0.0749	0.0634	0.0672	0.0643	0.067	0.0628			0.0538	0.0631	0.0552	0.0655	0.0663	0.0657	0.0531	0.0619	0.0197
R160V	0.0748	0.0679	0.0798	0.0605	0.0741	0.0667		0.0691	0.0661		0.069	0.0653		0.0651	0.0681	0.0748	0.0739	0.0639	
R160K	0.0634	0.0724		0.0659		0.0702	0.066	0.0704			0.0546			0.0715		0.0766		0.0533	0.0637
R160Y	0.0662	0.102	0.113		0.0634	0.0751		0.0395	0.0576		0.07	0.0551			0.0396	0.0852	0.0558	0.0265	
T176I	0.0493	0.0613	0.0747	0.0655	0.0779	0.0762	0.0618	0.0618	0.0663	0.0571	0.0685	0.0586	0.0697	0.0621	0.0643		0.0653	0.0578	0.0649
T176D	0.0615	0.0598	0.0586			0.0628	0.0665						0.0618	0.0586		0.0547			
T176F	0.062	0.0343				0.061	0.113	0.0604	0.0668	0.0644	0.0491	0.0578		0.0351		0.0729			
D149M	0.0532	0.0717	0.0725	0.0861		0.0606		0.0538	0.0611	0.0638	0.0565	0.0568	0.0791	0.0376		0.0655	0.0597	0.0527	
T174D	0.0645	0.089	0.0676	0.0436		0.0616	0.073	0.0706	0.0757		0.0646	0.0631	0.058	0.0483	0.0681	0.0681	0.0765	0.0599	0.0704
I164A	0.0519	0.0512	0.0715			0.0455	0.0505	0.0512	0.0473			0.0831				0.0562	0.0512	0.0323	
Q198K	0.0634	0.0355	0.092	0.0514	0.0784	0.0835		0.0379		0.078	0.0612	0.0657	0.0782	0.0848	0.0817		0.0701	0.0687	0.0839
K142G	0.0642	0.0546	0.0708	0.0543	0.0758	0.0685	0.0702	0.0675	0.0467		0.0619	0.0656	0.0678	0.0651	0.0729	0.0645		0.0659	0.0685
